In patent US20210301011A1, “COMPOSITION FOR PROPHYLAXIS OR TREATMENT OF IL-8 RELATED DISEASES” (CHUGAI SEIYAKU KABUSHIKI KAISHA, priority 2016, published 2021):

What was measured:
[1] = system: extracellular matrix (BD Matrigel Basement Membrane Matrix); test: Amount of antibody binding to the extracellular matrix by the ECL method; conditions: pH 7.4
Description: Extracellular matrix (the BD Matrigel Basement Membrane Matrix/manufactured by BD) was diluted to 2 mg/mL using TBS (Takara, T903). The diluted extracellular matrix was dispensed into the MULTI-ARRAY 96 well Plate, High bind, Bare (manufactured by Meso Scale Discovery: MSD) at 5 μL per well, and immobilized overnight at 4° C. Then, blocking was performed using 20 mM ACES buffer (pH 7.4) containing 150 mM NaCl, 0.05% Tween20, 0.5% BSA, and 0.01% NaN3.
The antibodies to be evaluated were prepared as follows. The antibody samples to be added alone were prepared by diluting each antibody to 9 μg/mL using Buffer-1 shown below, and then further diluting them using Buffer-2 to a final concentration of 3 μg/mL.
Buffer-1: 20 mM ACES buffer containing 150 mM NaCl, 0.05% Tween20, and 0.01% NaN3, at pH 7.4 Buffer-2: 20 mM ACES buffer containing 150 mM NaCl, 0.05% Tween20, 0.1% BSA, and 0.01% NaN3, at pH 7.4 […]
Next, solutions of the antibody alone or the complex were added to the plate from which the blocking solution had been removed, and this was shaken at room temperature for one hour. […] The antibody for ECL detection was removed, a solution produced by 2-fold dilution of the MSD Read Buffer T (4×) (manufactured by MSD) using ultrapure water was added, and then the amount of luminescence was measured by SECTOR Imager 2400 (manufactured by MSD).

[2] = target: T1, human IL-8 (Homo sapiens, UniProt P10145); test: Mouse PK assay: human IL-8 elimination after simultaneous administration of human IL-8 and anti-human IL-8 antibody; format: in vivo, mice (C57BL/6J); conditions: C57BL/6J mice; antibody 2 mg/kg
T1 sequence (P10145 23-99 limits assumed): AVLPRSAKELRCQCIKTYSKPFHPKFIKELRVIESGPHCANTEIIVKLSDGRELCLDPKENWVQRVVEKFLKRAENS
Description: After simultaneous administration of human IL-8 and anti-human IL-8 antibodies to mice (C57BL/6J, Charles river), pharmacokinetics of human IL-8 were evaluated. A mixed solution of human IL-8 and an anti-human IL-8 antibody (10 μg/mL and 200 μg/mL, respectively) was administered in a single dose at 10 mL/kg to the tail vein. […] Blood was collected five minutes, two hours, four hours, seven hours, one day, two days, three days, seven days, 14 days, 21 days, and 28 days after the administration. The collected blood was immediately centrifuged at 15,000 rpm and 4° C. for 15 minutes to obtain plasma. The separated plasma was stored in a freezer set at −20° C. or below until measurements were taken.
The human IL-8 concentration in mouse plasma was determined by an electrochemiluminescence method. […] Then, after one hour of reaction with a Biotin Mouse Anti-Human Igκ Light Chain (BD Pharmingen) at room temperature, and then one hour of reaction with SULFO-TAG Labeled Streptavidin (Meso Scale Discovery) at room temperature, Read Buffer T (×1) (Meso Scale Discovery) was dispensed, and measurements were performed immediately with SECTOR Imager 2400 (Meso Scale Discovery). The human IL-8 concentration was calculated based on the response in the calibration curve using the analytical software, SOFT Max PRO (Molecular Devices). […]

[3] = target: T1, human IL-8; test: IL-8-binding affinity (BIACORE T200, pH 7.4 40° C. / pH 5.8 37° C.); conditions: Table 15, in 1/s
Description: The following two running buffers were used, and measurements were carried out at the respective temperatures:
For the running buffer, either one of the above-mentioned solutions was used, and the respective buffers were also used to dilute human IL-8.

Molecule | binding to the extracellular matrix, complex with human IL-8 (+hIL8) ([1]; antibody 3 μg/mL with human IL-8 at ten times the molar concentration) | binding to the extracellular matrix, antibody alone (−IL8) ([1]; antibody 3 μg/mL) | increase of rate of human IL-8 elimination (CL) as compared to H998/L63 [2] | pH 5.8 koff [3]
H1009/L395: pH-dependent anti-IL-8 antibody, H1009-IgG1m (SEQ ID NO:48) heavy chain, L395-kOMT light chain (antibody) heavy: QVQLVESGGGLVQPGGSLRLSCAASGFTFSDYYLSWVRQAPGKGLEWVGLIRNKDNYHTPEYSASVKGRFTISRDDSKNSLYLTMSDLKTEDTAVYYCARENHRYDVELAYWGQGTLVTVSS[human IgG1 constant region skipped] light: DIQMTQSPSSLSASVGDRVTITCRASEIIYSYLAWYQQKPGKAPKLLIYKAKTHADGVPSRFSGSGSGTDFTFTISSLQPEDIATYYCKHHFGFPRTFGQGTKVEIKRTVAAPSVFIFPPSDEQLKSGTASVVCLLNNFYPREAKVQWKVDNALQSGNSQESVTEQDSKDSTYSLSSTLTLSKADYEKHKVYACEVTHQGLSSPVTKSFNRGEC | bound to the extracellular matrix upon complex formation with human IL-8 | hardly showed any binding to the extracellular matrix | approximately 30 fold | 
H1040/L0442: anti-IL-8 antibody: heavy chain H1040 with light chain L442 (Tables 14-2, 14-3) (antibody) heavy: QVQLVESGGGLVQPGGSLRLSCAASGFTFSEYYLSWVRQAPGKGLEWVGLIRNKDNHHHPEYSASVKGRFTISRDDSKNSLYLTMSDLKTEDTAVYYCARENHRYDVELAYWGQGTLVTVSS[human IgG1 constant region skipped] light: DIQMTQSPSSLSASVGDRVTITCRASEIIYEYLAWYQQKPGKAPKLLIYKAKTHADGVPSRFSGSGSGTDFTFTISSLQPEDIATYYCKHHFGFPRTFGQGTKVEIKRTVAAPSVFIFPPSDEQLKSGTASVVCLLNNFYPREAKVQWKVDNALQSGNSQESVTEQDSKDSTYSLSSTLTLSKADYEKHKVYACEVTHQGLSSPVTKSFNRGEC |  |  |  | 2.1E+01
